Test results published in paper PMC8729885, “β-Amyloid Clustering around ASC Fibrils Boosts Its Toxicity in Microglia” (Cell reports, 2020).

Target: T1, Amyloid β-Protein (1-42) (HFIP-treated) (UniProt P05067 part only)
T1 construct: amyloid β peptide 1-42, cut product of the amyloid precursor protein (APP); numbers count on: the Aβ peptide; In the phagocytosis and degradation assays a FAM-labelled Aβ1-42 (Peptide Specialty Laboratories, ID# CEM112812FL) was used instead; also called Aβ; Aβ1-42; source: bought: Bachem AG (HFIP-treated), dissolved in DPBS; also in lysate of ASC-deficient mouse microglia that had been treated …
Test: co-IP; cell-free: 1.75 μM ASC and 5 μM Aβ pre-incubated in serum-free medium O/N, then 1 h at RT with Protein G magnetic beads carrying anti-ASC (AL177) or anti-Aβ (82E1) in PBST; immunoblot for ASC and Aβ
Conditions: both partners purified

binding result: binds
B1: Full-length human ASC (apoptosis-associated speck-like protein containing a CARD), followed by a TEV protease cleavage site, mCherry and a C-terminal … (natural protein)
chain: [about 100 residues left out]AAKPGLHFIDQHRAALIARVTNVEWLLDALYGKVLTDEQYQAVRAEPTNPSKMRKLFSFTPAWNWTCKDLLLQALRESQSYLVEDLERS
notes: ASC (apoptosis-associated speck-like protein containing a CARD), human, full length; N-terminal PYD and C-terminal CARD; A TEV protease site lies between ASC and mCherry; Blots of treated cells show ASC-mCherry, ASC dimers and ASC monomers, so part of the protein may have lost mCherry; also called recombinant ASC; WT ASC; source: E. coli BL21(DE3), purified (pellet dissolved in 2 M Gdn-HCl, …)
